Results on 96 compounds are retold here after PubChem BioAssay AID1159614 (National Center for Advancing Translational Sciences (NCATS), 2016).

The campaign covered roughly 45,000 compounds. About 65 (0.1%) were called active. Calls come from the whole dose curve; as a rule, active = well fitted activation curve with a large enough effect; inconclusive = small, poorly fitted or top-dose-only effect; inactive = no such curve, though single readings can be large or run the other way. Some of the results follow.

UniProt P54803, sequence (P54803 whole entry, looked up): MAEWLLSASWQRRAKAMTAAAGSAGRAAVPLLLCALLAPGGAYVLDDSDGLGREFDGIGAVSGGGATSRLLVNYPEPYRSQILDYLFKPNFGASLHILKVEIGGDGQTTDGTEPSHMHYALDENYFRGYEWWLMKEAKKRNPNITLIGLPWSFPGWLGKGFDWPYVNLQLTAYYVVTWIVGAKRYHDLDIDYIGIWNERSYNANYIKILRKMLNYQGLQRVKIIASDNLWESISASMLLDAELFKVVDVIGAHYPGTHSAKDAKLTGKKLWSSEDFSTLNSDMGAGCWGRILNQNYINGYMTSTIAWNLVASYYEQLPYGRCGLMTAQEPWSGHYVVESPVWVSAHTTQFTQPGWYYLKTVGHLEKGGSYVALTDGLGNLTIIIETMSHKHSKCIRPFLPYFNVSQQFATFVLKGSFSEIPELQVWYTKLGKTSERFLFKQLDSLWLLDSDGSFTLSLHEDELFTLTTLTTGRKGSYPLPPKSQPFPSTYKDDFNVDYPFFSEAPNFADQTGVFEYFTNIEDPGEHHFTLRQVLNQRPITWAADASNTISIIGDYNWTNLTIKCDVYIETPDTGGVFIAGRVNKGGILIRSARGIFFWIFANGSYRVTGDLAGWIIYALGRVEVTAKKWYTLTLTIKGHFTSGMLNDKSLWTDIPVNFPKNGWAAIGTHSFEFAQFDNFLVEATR

This assay has as its target Galactocerebrosidase (Homo sapiens) (UniProt P54803). In words: A Novel Cell-Based Assay to Identify Small Molecules for B -Galactocerebrosidase. Note: 0% is about no effect; nearly all actives have a fitted effect of over 65% in size. To be noted: 145M-Twi-hGALC-G270D cells (Twitcher mouse brain line with human GALC G270D), HMU-beta-Gal fluorescence, 48 h; series mostly up to 57.5 µM; activation: at the top concentration. In a few lines:
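Fluorogenic HMU-b-Gal hydrolysis (0.1 mM final, pH 5.2 citrate-phosphate with 1 mg/mL sodium taurocholate; carbonate stop buffer) measures mutant GALC activity after compound treatment of live 145M-Twi Twitcher brain cells stably carrying human GALC-G270D, with wild-type GALC line alongside; activation sought.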
In the case of `CCOC(=O)c1c(C)[nH]c(C)c1S(=O)(=O)N1CCC(C(=O)Nc2ccc(C)c(Cl)c2)CC1`, the “activation” value was inactive: -9.4%. Consider `Cc1cccc(C)c1NC(=O)CCS(=O)(=O)c1cccc2nonc12`, for which the “activation” value is inactive: -11.4%. `Cc1c(NC(=O)c2ccc(Br)o2)cccc1-c1nc2ccccc2o1`: the “activation” value was inactive: -16.4%. The value for `CCCOc1cccc(C(=O)Nc2ccc(-c3cc4ccccc4oc3=O)c(C)c2)c1` was inactive: -11.6%; that for `CCOC(=O)c1ccc(NC2=CC(c3ccc(F)cc3)N(c3ccc(C(=O)OCC)cc3)C2=O)cc1` (stereo unspecified) was inactive: -12%; that for `CCOc1ccccc1NC(=O)c1cc2c(=O)n(Cc3cccnc3)ccc2nc1C` was inactive: -21.3%. Turning to `COc1ccc(NC(=O)N2CCN3CCCCC3C2)cc1OC` (stereo unspecified), the “activation” value was inactive: -9.88%. Turning to `COc1cc(C2NC(=O)c3c(sc4c3CCN(C)C4)N2)ccc1OC(=O)c1ccccc1` (stereo unspecified), the “activation” value is inactive: -13.8%. The value for `COc1ccccc1N=c1scc(-c2ccc(S(=O)(=O)N3CCCC3)cc2)n1C` was inactive: -11.3%; that for `COc1cccc(NC(=O)N2CCN(C(=O)c3nsc4ccccc34)CC2)c1` was inactive: -3.21%; that for `Cc1nc2c(c(C)nn2-c2ccccc2)c(C)c1CCC(=O)NCCc1ccc(Cl)cc1` was inactive: -8.04%.

Take `COc1ccccc1CNC(=O)CCNS(=O)(=O)c1cccc2nsnc12`: the “activation” value was inactive: 3.79%.

`Cc1cccc(Cn2cccc2CNS(=O)(=O)c2ccc(C)c(C)c2)c1`: the “activation” value is inactive: -10.7%. On to `CN1CCSc2ccc(C(=O)NCc3ccccc3)cc21`, for which the “activation” value was inactive: -10.7%. With `CCCCN(Cc1ccco1)C(=O)Cn1ncc2c([nH]c3ccccc32)c1=O` the figure was inactive: -11%; with `O=C(c1ccco1)n1nc(-c2ccc(Cl)cc2)nc1NCc1ccc(F)cc1`, inactive: 2.3%; with `COc1ccc(CC(=O)NCc2ccc3c(c2)CCN3C(=O)c2cccc(C)c2)cc1`, inactive: -20.6%. The value for `Cc1ccc(-n2cnc3cc(C(=O)NCc4ccccc4Cl)ccc32)c(C)c1` was inactive: -42.2%; that for `O=C(O)C(Cc1cc(I)c(O)c(I)c1)c1ccccc1` (stereo unspecified) was inactive: 1.89%. On to `CCCOc1cccc(C2c3c(oc4ccc(F)cc4c3=O)C(=O)N2Cc2ccc3c(c2)OCO3)c1` (stereo unspecified), for which the “activation” value was inactive: -1.85%. The value for `Cc1nc(-n2nc(C)c(Cc3ccc4c(c3)OCO4)c2C)sc1C(=O)Nc1ccc(Cl)cc1` was inactive: -5.87%; that for `O=C(Nc1ccc2nc(SCCOc3ccccc3)sc2c1)c1ccc2c(c1)OCO2` was inactive: -18.9%; that for `Clc1ccccc1Nc1ncnc2c1nc1n2CCCCC1` was inactive: -5.74%. With `CCOCCCNc1nc2cc(OC)c(OC)cc2c2nc(-c3ccccc3)nn12` the figure was inactive: -20.1%; with `COc1ccc(C2C(C(=O)Nc3ccccc3)=C(C)Nc3nc(-c4ccccc4Cl)nn32)cc1OC` (stereo unspecified), inactive: -14.2%; with `Cc1ccc(NC(=O)Cn2c(=O)n(CCC(=O)NCc3ccccc3Cl)c(=O)c3ccccc32)c(C)c1`, inactive: 4.06%.

In the case of `Cc1cccc(NS(=O)(=O)c2ccc3nc(-c4ccccc4)[nH]c3c2)c1C`, the “activation” value was inactive: -0.896%.

On to `CCOC(=O)c1scc(-c2ccc(C)cc2)c1S(=O)(=O)Nc1ccc(OC)c(Cl)c1`, for which the “activation” value was inactive: -16.1%. With `Cc1nc2cc(-c3ccccc3)nn2c(C)c1CCC(=O)NCc1cccc(Cl)c1` the figure was inactive: -8.73%.

As to `Cc1ccc(CNC(=O)CN(c2cc(C)cc(C)c2)S(=O)(=O)c2c(C)noc2C)cc1`, the “activation” value was inactive: -11.4%. Regarding `COc1cc2[nH]c(=O)n(CCCCCC(=O)N3CCN(c4ccc(Cl)cc4)CC3)c(=O)c2cc1OC`, the “activation” value is inactive: -11.3%. As for `O=C(CSc1cn(CC(=O)N2CCCC2)c2ccccc12)Nc1ccccc1C(F)(F)F`, the “activation” value is inactive: 5.62%.

With `Cc1cccc(Cn2c(=O)n(CC3CCC(C(=O)N4CCC(C)CC4)CC3)c(=O)c3sccc32)c1` (stereo unspecified), the “activation” value is inactive: -10.2%. The value for `Cc1nc2ccn(Cc3cccs3)c(=O)c2cc1C(=O)N1CCN(c2ccccc2)CC1` was inactive: -14.8%; that for `CCOC(=O)Cc1ccc(NC(=O)N2CC(C)Oc3ccc(Cl)cc32)cc1` (stereo unspecified) was inactive: -7.8%; that for `COc1cc2nc(NCc3ccccc3)n3nc(-c4ccccc4)nc3c2cc1OC` was inactive: -16.9%. With `COC(=O)c1ccccc1NC(=O)c1ccc2c(Cl)c3c(nc2c1)CCCC3` the figure was inactive: -14.9%; with `O=C(Nc1cccc(Br)c1)c1cc(-c2ccc3c(c2)OCCO3)on1`, inactive: 4.87%. With `COc1ccc(-n2c(=O)c3ccc(C(=O)NCc4ccc(C)cc4)cc3n(Cc3ccc(C)cc3)c2=O)cc1` the figure was inactive: -15.8%; with `Cc1ccccc1CNCCSc1nnnn1-c1ccccc1`, inactive: -8.11%; with `Cc1ccc(-n2c(=O)c3ccc(C(=O)NCc4ccco4)cc3n(Cc3ccc(Cl)cc3)c2=O)cc1`, inactive: -17.2%. Turning to `CCOC(=O)N1CCN(Cc2nc3cc(NC(=O)c4ccccc4OC)ccc3n2C(C)C)CC1`, the “activation” value is inactive: -13.6%. With `Cc1ccc2c(c1)N(S(=O)(=O)c1ccc3c(c1)NC(=O)CC(=O)N3)CCO2`, the “activation” value is inactive: -17.3%.

With `Cc1ccc2c(c1)N(CC(=O)NCCCN1CCCCC1C)C(=O)c1cccnc1O2` (stereo unspecified), the “activation” value is inactive: -9.75%.

For `Cc1ccc(-n2nc3c(=O)n(CC(=O)NCc4ccco4)nc(C)c3c2C)cc1`, the “activation” value was inactive: -22.8%.

As to `COc1ccc(CNC(=O)c2nc(S(=O)(=O)Cc3ccccc3)ncc2Cl)cc1`, the “activation” value is inactive: -23.4%. With `CSc1ccc(CCNc2ncnc3onc(-c4ccc(Cl)cc4)c23)cc1` the figure was inactive: -26.1%; with `Cc1cc(C)c2sc(N3CCN(C(=O)C4CC4)CC3)nc2c1`, inactive: -2.33%; with `Cc1nc2nc(SCC(=O)N(Cc3ccccc3)C(C)C)nn2c(C)c1Cc1ccccc1Cl`, inactive: -12.7%. On to `COc1ccc(C(=O)c2sc(Nc3cc(Cl)ccc3C)nc2N)cc1OC`, for which the “activation” value was inactive: -5.9%.

Turning to `COC(=O)c1cc2occc2n1Cc1nc(-c2cccc(Br)c2)oc1C`, the “activation” value was inactive: -14.7%. The value for `CCc1ccc2ncc3c(-c4ccc(C)cc4)nn(CC(=O)Nc4ccc(C)cc4)c3c2c1` was inactive: -19.3%; that for `COc1ccc(Oc2nc3c(C)cccn3c(=O)c2/C=C(\C#N)c2nc3ccccc3[nH]2)cc1` was inactive: -11.5%.

For `Cc1cc(C)c(NC(=O)Cn2c(=O)n(-c3ccc(F)cc3)c(=O)c3c(C)c(C(=O)N(C)C)sc32)c(C)c1`, the “activation” value was inactive: -0.607%. The value for `COc1ccc(-n2c(=O)c3c4c(sc3n(Cc3cc(=O)n5c(C)cccc5n3)c2=O)CCC4)c(OC)c1` was inactive: -21.8%; that for `Cc1ccc(NC(=O)c2ccco2)c(OCc2cc(=O)n3cc(C)sc3n2)c1` was inactive: -2.67%.

Regarding `CC(C)(Cc1c[nH]c2ccccc12)NCC(O)COc1ccccc1C#N` (stereo unspecified), the “activation” value was inactive: -8.41%. The value for `CCC1CN(C(=O)NCc2ccc(F)cc2)c2ccccc2O1` (stereo unspecified) was inactive: -7.17%; that for `COc1ccc(NC(=O)CCCS(=O)(=O)c2nc(-c3ccc(OC)c(OC)c3)cc(C(F)(F)F)n2)cc1OC` was inactive: -19%; that for `Cc1ccc(OCC(=O)Nc2ccc3nc(SCC(=O)N4CCCC4)sc3c2)cc1C` was inactive: -15.7%. With `CCc1ccc(CNC(=O)CSCc2cnn(-c3ccccc3)c2-n2cccc2)cc1` the figure was inactive: -10.4%. Consider `Cc1ccc(Cn2c(=O)c3ccccc3n3c(-c4ccccc4)nnc23)cc1`, for which the “activation” value is inactive: -16%.

Consider `COc1ccc(C2CC(=O)N3CN(C4CCCCC4)CSC3=C2C#N)cc1` (stereo unspecified), for which the “activation” value is inactive: -17.3%. For `COc1cccc(-c2nc(CS(=O)CC(=O)N3CCN(c4cccc(C(F)(F)F)c4)CC3)c(C)o2)c1` (stereo unspecified), the “activation” value was inactive: -19.1%. Consider `Cc1ccc(SCC(=O)Nc2ccc3oc(-c4cccc(C)c4)nc3c2)cc1`, for which the “activation” value was inactive: -3.21%. Consider `Cc1ccc(Cl)cc1NC(=O)CCS(=O)(=O)c1ccc(Br)s1`, for which the “activation” value is inactive: -2.03%. Take `O=C(Nc1ccc2c(c1)N(C1CCCC1)C(=O)c1ccccc1S2)c1ccccc1`: the “activation” value was inactive: -16.5%. With `O=C(NCCC1=CCCCC1)c1ccc2c(c1)N(Cc1ccccc1)C(=O)c1ccccc1S2(=O)=O` the figure was inactive: -5.3%; with `CCOC(=O)c1noc2ncn(CC(=O)O)c(=O)c12`, inactive: -9.8%. Regarding `O=C(Cn1cc(SCc2ccccc2Cl)c2ccccc21)N1CCCCCC1`, the “activation” value was inactive: -27.4%. With `COc1ccc(OC)c(CNS(=O)(=O)c2ccc(-c3cc(C(F)(F)F)on3)s2)c1` the figure was inactive: 1.02%; with `CCN1C(=O)CC(C(=O)Nc2ccc(OC)cc2)SC1=Nc1ccc(C)c(C)c1` (stereo unspecified), inactive: -14%; with `CCc1cccc(NC(=O)CCS(=O)(=O)c2ccc(C)cc2)c1`, inactive: -4.07%.

`CCc1ccc(C2c3c(n[nH]c3C)C(=O)N2c2ccc(C)cc2)cc1` (stereo unspecified): the “activation” value was inactive: -10.9%. With `CCOc1ccc(-c2ccc(CO)o2)cc1N` the figure was inactive: -11%; with `O=C(NC1CCCC1)c1ccc2c(c1)N(Cc1ccc(F)cc1)C(=O)c1ccccc1S2`, inactive: -10.8%; with `Cc1ccc(N2CCN(C(=O)c3nn(C)c4c3CSc3ccccc3-4)CC2C)cc1` (stereo unspecified), inactive: 1.72%. For `Cc1ccc(CNC(=O)CN(c2cc(C)cc(C)c2)S(=O)(=O)c2c(C)[nH]c(=O)[nH]c2=O)cc1`, the “activation” value was inactive: -13.2%. The value for `COc1ccc(-c2noc(-c3ccccc3NC(=O)c3cc(OC)c(OC)c(OC)c3)n2)cc1` was inactive: -14.1%; that for `O=S(=O)(Nc1nc2n(n1)C(c1ccccc1)C=C(c1ccc(Cl)cc1)N2)c1ccccc1` (stereo unspecified) was inactive: -18.2%; that for `COc1ccc(NC(=O)C(Cc2ccccc2)n2cccc2)c(OC)c1` (stereo unspecified) was inactive: -12.4%.

As for `CC(C)CCNC(=O)CSc1nc2ccsc2c(=O)n1Cc1ccccc1Cl`, the “activation” value is inactive: -5.52%.

Turning to `OC(CCN1CCCCC1)(c1ccccc1)c1ccccc1`, the “activation” value was inactive: -11.8%. Turning to `O=C(COc1ccccc1F)Nc1nnc(S(=O)(=O)N2CCCCCC2)s1`, the “activation” value is inactive: -14.9%.

For the compound `CCCCNC(=O)CSc1nc2n[nH]c(C)c2c(=N)n1-c1ccccc1CC`, the “activation” value is inactive: -7.72%. The value for `COc1ccc(C2CC(=O)c3c([nH]c(C(=O)OCc4ccccc4)c3C)C2)cc1OC` (stereo unspecified) was inactive: -13.6%; that for `CCOc1cc(C2c3c(oc4ccc(F)cc4c3=O)C(=O)N2Cc2ccc(C)cc2)ccc1O` (stereo unspecified) was inactive: -20%.

As for `COc1ccc(Nc2nnc(-c3ccc(C)c(S(=O)(=O)N4CCOCC4)c3)c3ccccc23)cc1`, the “activation” value was inactive: -22.8%.

For `O=C(NCc1ccc(Cl)cc1)C1CCCN(c2ncnc3onc(-c4ccc(F)cc4)c23)C1` (stereo unspecified), the “activation” value is inactive: -5.25%. With `Cc1cccc(NC(=O)c2c(Br)sc3c2CCCC3)c1`, the “activation” value is inactive: -9.32%. With `COc1ccccc1N1CCN(C(=O)CSc2nc(-c3ccc(C(C)C)cc3)no2)CC1` the figure was inactive: -10.8%; with `CCCCNC(=O)C1CCN(Cc2nc(-c3ccc(OC)c(OC)c3)oc2C)CC1`, inactive: -5.79%; with `O=C(NCCCN1CCN(c2ccccc2)CC1)c1cc2c(s1)-c1ccccc1OC2`, inactive: -14.6%. Consider `CCOC(=O)c1c(C)oc2nc(C)nc(NCCCN3CCN(c4cccc(C)c4)C(C)C3)c12` (stereo unspecified), for which the “activation” value is inactive: -26.9%. Regarding `CCC1CN(C(=O)Nc2cccc3c2CCCC3)c2cc(C)ccc2O1` (stereo unspecified), the “activation” value is inactive: -1.95%. The value for `Cc1ccccc1Cc1c(C)nc2nc(SCC(=O)NC(C)c3ccccc3)nn2c1C` (stereo unspecified) was inactive: -7.81%.
